Holding throughout (assay): two-hybrid
Test [1] deals with Tsi2 Arg18 alanine substitution mutant–V–Zif (Pseudomonas aeruginosa (PAO1)) (UniProt Q9I0D9).
In test [2] the target is Tsi2 Cys14 glutamine substitution mutant–V–Zif (Pseudomonas aeruginosa (PAO1)) (UniProt Q9I0D9).
Test [3] deals with Tsi2 D23K–V–Zif (Pseudomonas aeruginosa (PAO1)) (UniProt Q9I0D9).
For test [4], the target named is Tsi2 D30K–V–Zif (Pseudomonas aeruginosa (PAO1)) (UniProt Q9I0D9).
The target in test [5] is Tsi2 D49K–V–Zif (Pseudomonas aeruginosa (PAO1)) (UniProt Q9I0D9).
The target in test [6] is Tsi2 D69K–V–Zif (Pseudomonas aeruginosa (PAO1)) (UniProt Q9I0D9).
Test [7] addresses Tsi2 E36K–V–Zif (Pseudomonas aeruginosa (PAO1)) (UniProt Q9I0D9).
Test [8] concerns the target Tsi2 E56K–V–Zif (Pseudomonas aeruginosa (PAO1)) (UniProt Q9I0D9).
Test [9] deals with Tsi2 E73K–V–Zif (Pseudomonas aeruginosa (PAO1)) (UniProt Q9I0D9).
For test [10], the target named is Tsi2 E74K–V–Zif (Pseudomonas aeruginosa (PAO1)) (UniProt Q9I0D9).
The target of test [11] is Tsi2 Glu21 alanine substitution mutant–V–Zif (Pseudomonas aeruginosa (PAO1)) (UniProt Q9I0D9).
Test [12] addresses Tsi2 Val10 glutamine substitution mutant–V–Zif (Pseudomonas aeruginosa (PAO1)) (UniProt Q9I0D9).
Test [13] deals with Tsi2^D45K–V–Zif (Pseudomonas aeruginosa (PAO1)) (UniProt Q9I0D9).
Test [14] concerns the target Tsi2^E38K–V–Zif (Pseudomonas aeruginosa (PAO1)) (UniProt Q9I0D9).
For test [15], the target named is Tsi2–V–Zif (type VI secretion immunity 2 fused C-terminally to the VSV-G epitope followed by Zif) (Pseudomonas aeruginosa (PAO1)) (UniProt Q9I0D9).
Test [16] addresses Tsi2 Asp45Asn–V–Zif (Pseudomonas aeruginosa (PAO1)) (UniProt Q9I0D9).
Test [17] deals with Tsi2 Glu38Gln–V–Zif (Pseudomonas aeruginosa (PAO1)) (UniProt Q9I0D9).
Test [18] concerns the target Tsi2^A47Q–V–Zif (Pseudomonas aeruginosa (PAO1)) (UniProt Q9I0D9).

Results are given in words; binding and its absence hold for the method and conditions named. Some entries that bind do so weakly or less than the wild type.

In the case of “Tsi2–ω (Tsi2 as N-terminal fusion to the ω subunit of E. coli RNA polymerase) (from UniProt Q9I0D9 1-77)”, the binding entry in test [1], in test [2], in test [3], in [4], in test [5] and in test [6] was “binds” throughout. The binding entry in [7], in test [8], in test [9], in [10], in [11] and in test [12] was “binds” throughout. Moreover, the binding entry in test [13], in [14] and in test [15] was “binds” each time.

For “Tse2NT–ω (non-toxic Tse2 T79A S80A as N-terminal fusion to the ω subunit of E. coli RNA polymerase) (from UniProt Q9I0E0 1-158)”, the binding entry in test [16], in [3], in test [4], in test [5], in test [6] and in test [7] was “binds” in each case. The binding entry was “binds” in test [8]; “binds” in [9]; “binds” in test [10]; “binds” in test [17]; “binds” in [18]; “no binding” in [13]. Also, the binding result in [14] was “no binding”; in [15] it was “binds”.

Source of the values: PMC3325213 (PLoS Pathogens, 2012).
